This is an account of results in ChEMBL document CHEMBL4888484, “Replenishing the malaria drug discovery pipeline: Screening and hit evaluation of the MMV Hit Generation Library 1 (HGL1) against asexual blood stage Plasmodium falciparum ,using a nano luciferase reporter read-out” (2022).

The whole screen tested about 150,000 compounds, of which about 540 (0.36%) showed an effect of 50% or more. The list shows a part of the results.

The experiment has as its system Plasmodium falciparum. The experiment in a line: Primary screen in NF54 nanoGlo assay, in single point, at 2uM, 72h; a lower Z score goes with more inhibition. Type of experiment: functional, Erythrocyte. The conditions noted are these: timepoint 72 hour.
The term % Inhibition denotes the relative decrease from the control value, in per cent. With `Cc1cc(NCc2ccco2)nc(C)n1`, the “% Inhibition” value is listed as -9% and the Z score amounted to 1.14.

Take `OC[C@H]1CCCN1c1ccc(C(F)(F)F)nn1`: the “% Inhibition” value is -13% and the Z score came to 2.03.

Take `CCOC[C@@H](O)CN(CCN(C)C)Cc1c(-c2ccccc2)noc1N1CCCCC1`: the “% Inhibition” value was -8% and the Z score worked out at 0.98.

As for `CC1(C)C(=O)N(CC2CCCCCC2)C(=O)N1CC(N)=O`, the “% Inhibition” value is -10% and the Z score was 1.69.

Take `Cn1ncc(NC(=O)Cn2ccc3cc(-c4cc(F)ccc4F)ccc32)n1`: the “% Inhibition” value came out at 11% and the Z score is on record as -1.41.

`CO[C@H]1[C@H](NC(=O)C(C)C)c2ccccc2C12CCN(C(=O)COc1ccc(C)cc1)CC2`: the “% Inhibition” value stood at 1% and the Z score is reported as -0.09.

`COc1cccc(-c2nc3c(s2)CN(S(=O)(=O)c2ccc(C)c(C)c2)CC3)c1`: the “% Inhibition” value is on record as 4% and the Z score was -0.45.

For the molecule `CCCC1(NC[C@]2(O)CCCN(Cc3cc(OC)ccc3F)C2=O)CC1`, the “% Inhibition” value is -8% and the Z score is 1.04.

On to `c1ccn2cc(Cn3ccnc3-c3ccncc3)nc2c1`, for which the “% Inhibition” value is -1% and the Z score worked out at 0.24.

For `O=C(c1cnc2ccsc2c1)N1CC2(CCCCC2)C1`, the “% Inhibition” value is reported as -15% and the Z score came out at 2.61.

On to `CC(C)CC(=O)[C@H]1CCCN(C(=O)Cn2nnnc2CN2CCCC2)C1`, for which the “% Inhibition” value is given as 1% and the Z score was -0.15.

For `Cc1ccc(Oc2nc(N3CCC(C)CC3)nc3c2CN(S(=O)(=O)c2ccccc2)CC3)cc1`, the “% Inhibition” value turned out to be 2% and the Z score was -0.32.

For `Nc1ccc(CN2CCC[C@H]2COc2ccc(Cl)cc2)nn1`, the “% Inhibition” value is listed as -13% and the Z score came out at 1.79.

For `Cc1nnn(CC(=O)Nc2cc(-c3ccccn3)nn2C)n1`, the “% Inhibition” value is -5% and the Z score is on record as 0.79.

Consider `Fc1ccc(NCc2c[nH]c3ccccc23)cc1`, for which the “% Inhibition” value worked out at 6% and the Z score is -1.

Regarding `CC[C@H](CO)NC(=O)N[C@H](C)c1cccc(Cl)c1`, the “% Inhibition” value is on record as -2% and the Z score worked out at 0.31.

For the molecule `Cc1oc(-c2ccccc2)nc1CN1CCN(S(=O)(=O)c2ccc3c(c2)CCCC3)CC1`, the “% Inhibition” value is on record as -9% and the Z score is reported as 1.15.

With `CC(Nc1cccc(CO)c1)C1CCOC1` (stereo not drawn), the “% Inhibition” value is -10% and the Z score amounted to 1.32.

With `CCCn1nc(C(=O)N2CCCCCC2)c2c1CC[C@H](N1CCN(CC)CC1)C2`, the “% Inhibition” value stood at 9% and the Z score was -1.13.

As for `CN1CCO[C@@H](CNc2ncc(F)cn2)C1`, the “% Inhibition” value was -2% and the Z score was determined as 0.33.

Turning to `CCCc1nc(CNc2nc3c(s2)c(C)nn3C)cs1`, the “% Inhibition” value was found to be 7% and the Z score is listed as -1.31.

Turning to `CCN(C(=O)c1cnn(C)c1)[C@@H](C)c1ccncc1`, the “% Inhibition” value was -6% and the Z score was determined as 0.93.

For `CC(=O)N[C@H]1[C@H](Oc2ccccc2Cl)O[C@@H]2COC(C)(C)O[C@H]2[C@@H]1O`, the “% Inhibition” value was -3% and the Z score is 0.48.

`CN(Cc1ccccc1)C(=O)CCC1CCN(Cc2ccc3nsnc3c2)CC1`: the “% Inhibition” value was -1% and the Z score is 0.21.

Regarding `CCC(C)Oc1cccc(NC(C)CC(=O)NC)c1` (stereo not drawn), the “% Inhibition” value is -14% and the Z score is listed as 1.85.

Turning to `N#C[C@@H]1COCCN1C(=O)c1ccnc(OCC(F)F)c1`, the “% Inhibition” value is recorded as -5% and the Z score is listed as 0.62.

Turning to `COc1ccc(CCNC(=O)c2nnn3c2CO[C@H](c2ccc(F)cc2)C3)cc1OC`, the “% Inhibition” value is recorded as 4% and the Z score was -0.4.

With `c1ccc(-c2ncn(CCc3c[nH]cn3)c2-c2cccn2-c2ccccn2)cc1`, the “% Inhibition” value is on record as -9% and the Z score was 1.7.

Consider `CCCN1C[C@@H]2CC[C@H]1CN(Cc1ccc(C)o1)C2`, for which the “% Inhibition” value was -9% and the Z score came out at 1.61.

Turning to `Cc1cc(F)ccc1[C@@H]1CCCN1C(=O)Nc1ncnn1C`, the “% Inhibition” value was -12% and the Z score was determined as 1.88.

`O=C(c1cnccn1)N1C[C@H]2CC[C@@H](C1)N(Cc1ccc3ccccc3n1)C2`: the “% Inhibition” value is given as -3% and the Z score was determined as 0.48.

Regarding `O=C(NCCc1ccccn1)[C@H]1CCCN(c2nnc3ccc(C(F)(F)F)cn23)C1`, the “% Inhibition” value is given as -20% and the Z score is 3.38.

`CCC(O)CN(CC)C(C)c1cccc(O)c1` (stereo not drawn): the “% Inhibition” value is -8% and the Z score is on record as 1.01.

With `CC[C@](C)(O)CNC(=O)c1nccnc1N`, the “% Inhibition” value is listed as -7% and the Z score came out at 0.85.

For `CC[C@H]1CCCN(c2ncc(Br)cc2CO)C1`, the “% Inhibition” value is 0% and the Z score is -0.05.

For the molecule `CO[C@@H]1CO[C@H]2[C@@H]1OC[C@@H]2NCc1ccc(N(C)C)cc1`, the “% Inhibition” value is on record as 31% and the Z score is listed as -3.51.

In the case of `CC(C)c1ccc(-n2nc(C(=O)NCc3ccc4c(c3)OCO4)c(=O)n(Cc3ccccc3)c2=O)cc1`, the “% Inhibition” value is on record as -12% and the Z score was 1.85.

Consider `CCCCNC(=O)c1ccc(-c2cn[nH]c2)o1`, for which the “% Inhibition” value is -1% and the Z score is recorded as 0.15.

For the molecule `Cc1cccc(C)c1N[C@@H](C)C(=O)N1CCC2(CC1)CN(C)CCN2C`, the “% Inhibition” value is -8% and the Z score is reported as 1.08.

For `O=C(NCc1cc(C2CC2)ncn1)c1ccccc1Br`, the “% Inhibition” value is recorded as -8% and the Z score turned out to be 1.68.

With `Cc1nscc1C(=O)NC1CCC(Oc2ccccc2C#N)CC1` (stereo not drawn), the “% Inhibition” value was -11% and the Z score is given as 1.5.

Take `COc1ccc(CC(=O)N2CCC[C@H]2c2nc3cc(-c4ccccc4F)ccc3o2)cc1`: the “% Inhibition” value came to 1% and the Z score is on record as -0.23.

`Cc1cccc(Cl)c1S(=O)(=O)NCc1ocnc1C`: the “% Inhibition” value is listed as -13% and the Z score is recorded as 2.37.

`COc1nn(C)cc1NC(=O)N[C@H]1CCO[C@@H]1c1c(C)nn(C)c1C`: the “% Inhibition” value is -11% and the Z score amounted to 1.82.
